Results as given in PubChem BioAssay AID504332 (National Center for Advancing Translational Sciences (NCATS), 2011).
Values joined by “and” are separate entries in the source; they are usually repeats but may differ in a detail not shown here. Equal entries are not always repeated. The whole screen tested about 350,000 compounds, of which about 31,000 (8.9%) were called active. Inconclusive results, whose numbers are uncertain, are shown with a selection of clear calls. Calls come from the whole dose curve; as a rule, active = well fitted inhibition curve with a large enough effect; inconclusive = small, poorly fitted or top-dose-only effect; inactive = no such curve, though single readings can be large or run the other way. Where the call is inconclusive, the potency comes from a doubtful curve fit. More than one record can exist for a structure, and the calls need not agree.
% is set by controls: 0 for no effect and ±100 for the full control effect; potency is the fitted concentration of half-maximal effect; tags give direction and shape of the fitted curve.
Note: nearly all actives have a fitted effect of over 75% in size.

These compounds were tested against Histone-lysine N-methyltransferase EHMT2 (Homo sapiens) (UniProt Q96KQ7) (assay: qHTS Assay for Inhibitors of Histone Lysine Methyltransferase G9a). Details: G9a H3K9 monomethylation, AlphaScreen, 2 h; activity, negative = inhibition: at 59 µM (top of the series) unless noted.
Chain of UniProt Q96KQ7 (Q96KQ7 whole entry, looked up): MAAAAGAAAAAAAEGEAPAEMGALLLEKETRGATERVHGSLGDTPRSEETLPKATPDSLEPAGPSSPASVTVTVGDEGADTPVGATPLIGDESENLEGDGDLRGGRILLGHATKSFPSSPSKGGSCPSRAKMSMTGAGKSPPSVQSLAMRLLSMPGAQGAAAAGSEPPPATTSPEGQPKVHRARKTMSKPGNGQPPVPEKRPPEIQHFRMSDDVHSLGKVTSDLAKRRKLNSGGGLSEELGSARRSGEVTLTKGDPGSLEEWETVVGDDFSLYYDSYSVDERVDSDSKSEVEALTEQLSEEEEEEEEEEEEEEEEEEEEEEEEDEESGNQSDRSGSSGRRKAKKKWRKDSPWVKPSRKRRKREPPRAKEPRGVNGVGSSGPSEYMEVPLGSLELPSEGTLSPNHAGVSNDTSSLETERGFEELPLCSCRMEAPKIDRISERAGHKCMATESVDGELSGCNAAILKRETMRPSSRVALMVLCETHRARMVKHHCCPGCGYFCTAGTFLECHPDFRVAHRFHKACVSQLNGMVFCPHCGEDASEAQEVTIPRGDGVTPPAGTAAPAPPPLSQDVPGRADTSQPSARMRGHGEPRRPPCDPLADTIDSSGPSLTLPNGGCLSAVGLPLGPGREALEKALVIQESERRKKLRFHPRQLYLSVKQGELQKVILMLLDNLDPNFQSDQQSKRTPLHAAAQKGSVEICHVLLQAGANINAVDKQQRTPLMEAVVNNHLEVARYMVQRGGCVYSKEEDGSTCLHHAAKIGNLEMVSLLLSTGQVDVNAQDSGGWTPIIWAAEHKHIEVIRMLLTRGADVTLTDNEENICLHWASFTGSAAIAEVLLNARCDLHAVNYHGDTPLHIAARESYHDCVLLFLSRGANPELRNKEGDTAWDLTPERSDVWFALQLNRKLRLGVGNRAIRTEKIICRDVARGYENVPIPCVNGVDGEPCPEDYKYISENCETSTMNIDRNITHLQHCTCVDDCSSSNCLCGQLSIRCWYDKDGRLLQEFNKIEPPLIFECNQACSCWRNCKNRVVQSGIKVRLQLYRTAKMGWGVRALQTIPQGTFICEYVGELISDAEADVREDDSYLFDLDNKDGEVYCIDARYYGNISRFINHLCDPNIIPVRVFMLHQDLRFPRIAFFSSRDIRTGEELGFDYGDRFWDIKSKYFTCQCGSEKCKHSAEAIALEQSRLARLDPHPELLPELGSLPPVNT
How it was run: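 Compounds were preincubated with 20 nM G9a for 15 min, after which biotinylated H3K9 peptide (500 nM) and SAM (20 uM) started a 2 h room-temperature reaction. Monomethylated product was quantified by antibody-based AlphaScreen chemiluminescence.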
With `CN(C)CCNC(=O)c1cccn(Cc2cccc(C(F)(F)F)c2)c1=O` the Potency was inconclusive: 79.4 µM [inhibitor, partial curve, poor fit].
With `CC(=O)C1C2c3ccccc3OC1(C)N=c1s/c(=C/c3cnn(C)c3)c(=O)n12` (centres undefined) the Potency was “inactive”.
With `C/C=C(\C)C(=O)OC1C(C)=C2C(C1OC(=O)CCCCC)C(C)(OC(C)=O)CC(OC(=O)CCC)C1(O)C2OC(=O)C1(C)O` (centres undefined) the activity, negative = inhibition was inconclusive: -76.2% [inhibitor].
With `CC(CNC(=O)c1ccc(CSc2nc3ccncc3n2Cc2ccc(F)cc2)cc1)c1ccccc1` (centres undefined) the Potency was inconclusive: 3.55 µM [inhibitor, full curve].
`CC1=NOC2(C)Nc3ncnn3C(c3ccccc3)C12` (centres undefined) was tested, and the Potency was inconclusive: 14.1 µM [inhibitor, partial curve, poor fit].
With `COC(=O)C1=C(c2ccc(F)cc2F)C[C@@H]2CC[C@H]1N2C(=O)NCc1ccc(F)cc1` the activity, negative = inhibition was inactive: -6.87% [at 2.33 µM].
In the case of `S=c1[nH]nc(-c2ccco2)n1Cc1ccccc1`, the Potency is reported as inconclusive: 1.26 µM [inhibitor, full curve, poor fit].
With `CCN(CC)CCNC(=O)c1c(O)c2ccccc2n(Cc2ccccc2)c1=O` the Potency was inconclusive: 5.62 µM [inhibitor, full curve, poor fit].
In the case of `O=c1[nH]c(=S)n(-c2cccc(Cl)c2)c(O)c1C=NCCN1CCNCC1`, the Potency is reported as inconclusive: 89.1 µM [inhibitor, single point].
For `COc1cccc(-n2c(/C=C/c3ccc(O)c(O)c3)nc3ccccc3c2=O)c1`, the Potency was active: 44.7 µM.
For `COc1ccc(N(C)C(=O)Cn2c(=O)oc3ccccc32)c(OC)c1`, the Potency was active: 44.7 µM.
With `CC(C)c1ccc(OCC(=O)N2CCN(C)CC2)c(Br)c1` the Potency was inconclusive: 0.794 µM [inhibitor, partial curve, poor fit].
`CC(=O)c1ccc2c(c1)C1C(Cl)C(Sc3ccccc3[N+](=O)[O-])CC1C(c1ccccc1[N+](=O)[O-])N2` (centres undefined) was tested, and the Potency was inconclusive: 15.8 µM [inhibitor, partial curve, poor fit].
In the case of `Cn1c(=O)c2[nH]cnc2n(C)c1=O`, the Potency is reported as “inactive and active: 3.36 µM”.
In the case of `Fc1ccc(C(OCCN2CCN(C/C=C/c3ccccc3)CC2)c2ccc(F)cc2)cc1`, the Potency is reported as active: 11.2 µM.
`CCOC(=O)[C@]1(C#N)[C@@H]2C=CC(C(C)=O)=CN2[C@@H](C(N)=O)[C@@H]1c1ccsc1` was tested, and the Potency was “inactive”.
With `CC(C)Oc1cccnc1N(C)C1CCN(Cc2ccccc2)CC1` the Potency was inconclusive: 56.2 µM [inhibitor, partial curve, poor fit] and inconclusive: 22.4 µM [inhibitor, partial curve, poor fit].
In the case of `CCC(=O)c1cn(Cc2ccccc2)c2ccccc12`, the Potency is reported as “inactive”.
With `COc1cc(/C=N/NP(=S)(c2ccccc2)c2ccccc2)ccc1O` the Potency was active: 44.7 µM.
With `O=[N+]([O-])c1cccc(CN2CC=C(c3ccc(F)cc3)CC2)c1` the Potency was inconclusive: 89.1 µM [inhibitor, single point].
`Brc1cc2c(cc1CN1CCN(c3ccccc3)CC1)OCCO2` was tested, and the Potency was inconclusive: 39.8 µM [inhibitor, full curve].
`COc1ccccc1N(CC(=O)NC1CCCCC1)C(=O)c1cnn(C(C)C)c1` was tested, and the Potency was “inactive”.
`CN1C(=O)N(C)C(=O)C2(Cc3cc(NC(=O)c4ccccc4)ccc3N3CCCC32)C1=O` (centres undefined) was tested, and the Potency was active: 31.6 µM.
With `C[C@@H]1O[C@H](C[N+](C)(C)C)CS1` the Potency was active: 2 µM.
`O=C(COc1ccc(S(=O)(=O)N2CCCCC2)cc1)N1CCN(Cc2ccccc2)CC1` was tested, and the Potency was active: 44.7 µM.
`Cc1cc(N2C(=O)C3CCCN3C2c2ccc(Cl)c(Cl)c2)no1` (centres undefined) was tested, and the Potency was inconclusive: 89.1 µM [inhibitor, partial curve, poor fit].
`O=C1CC(=O)N(c2ccc3c(c2)OCO3)C(=O)N1` was tested, and the Potency was inconclusive: 1.26 µM [inhibitor, full curve].
With `Cc1ccn2nc(S(=O)(=O)Nc3c(F)cccc3F)nc2n1` the Potency was inconclusive: 11.2 µM [inhibitor, partial curve, poor fit].
`COc1ccccc1/C=C1\C(=O)NC(=S)N(c2ccccc2)C1=O` was tested, and the Potency was active: 28.2 µM.
`Cc1ccc(-n2c(O)c(C=NCCN3CCOCC3)c(=O)[nH]c2=O)cc1` was tested, and the Potency was inconclusive: 31.6 µM [inhibitor, partial curve, poor fit].
In the case of `COc1ccc(NC(=O)CN2CC=C(c3ccccc3)CC2)cc1S(=O)(=O)N1CCOCC1`, the Potency is reported as inconclusive: 79.4 µM [inhibitor, partial curve, poor fit].
With `CC12CCCCC1(O)[N+](=O)C1=C(CCCC1)N2[O-]` (centres undefined) the Potency was inconclusive: 56.2 µM [inhibitor, partial curve, poor fit].
`C[C@@]12CC[C@H](O)C[C@@H]1CC[C@H]1[C@H]2CC[C@@]2(C)[C@@H](C3=CC(=O)OC3)CC[C@]12O` was tested, and the Potency was “inactive”.
In the case of `CN(C)C1(CNC(=O)c2cc(S(=O)(=O)N3CCOCC3)c(Cl)cc2Cl)CCCCC1`, the Potency is reported as inconclusive: 89.1 µM [inhibitor, partial curve, poor fit].
`C[N+]12CCC(CC1)C(C#N)(N1CCOCC1)C2` (centres undefined) was tested, and the Potency was active: 50.1 µM.
In the case of `Cc1c(C)n(O)c2ccc3nonc3c12`, the Potency is reported as inconclusive: 25.1 µM [inhibitor, single point].
For `O=C1/C(=C/c2ccc([N+](=O)[O-])cc2)N2CCC1CC2`, the Potency was active: 11.2 µM.
For `COc1ccccc1OCC(=O)N1CCCC(N2CCN(c3ccc(F)cc3)CC2)C1` (centres undefined), the Potency was “inactive”.
`CCN1C[C@]2(C)CC[C@H](O)[C@]34C1[C@H](C[C@H]23)[C@@]1(O)C[C@H](OC)[C@H]2C[C@@H]4[C@@H]1C2O` (some centres undefined) was tested, and the Potency was “inactive”.
For `CCOc1cc(C2NCc3ccccc3-n3cccc32)ccc1OC` (centres undefined), the Potency was inconclusive: 50.1 µM [inhibitor, partial curve, poor fit].
`COCCN1C(=O)NC(=O)/C(=C\c2ccc(F)cc2)C1=O` was tested, and the Potency was inconclusive: 50.1 µM [inhibitor, partial curve, poor fit].
In the case of `CC(=NCCCN1CCOCC1)c1c(O)n(Cc2ccccc2)c(=O)[nH]c1=O`, the Potency is reported as “inactive”.
For `CCCCC(=O)Nc1c(C(=O)N2CCN(c3ccccc3F)CC2)oc2ccccc12`, the Potency was inconclusive: 35.5 µM [inhibitor, partial curve, poor fit].
`CCOC(=O)C1(c2ccccc2)CCN(CC(=O)Nc2ccc(C)cc2)CC1` was tested, and the Potency was inconclusive: 50.1 µM [inhibitor, partial curve, poor fit].
For `O=c1[nH]c(=O)n(-c2ccccc2)c(O)c1/C=C1/C(c2ccccc2)=Nc2ccccc21`, the Potency was inconclusive: 31.6 µM [inhibitor, single point].
For `CC1=CC2/C=C(\C)CCC(O)C(O)/C=C/C(=O)C23C(=O)NC(CC(C)C)C3C1C` (centres undefined), the activity, negative = inhibition was inconclusive: -81.8% [inhibitor].
In the case of `CCOc1cc2c(cc1OCC)-n1cccc1C(c1cccc(OCC)c1O)NC2` (centres undefined), the Potency is reported as active: 44.7 µM.
For `CCOC(=O)c1[nH]c2ccc(OC)cc2c1C(SCC(=O)O)c1ccc(C(F)(F)F)cc1` (centres undefined), the Potency was inconclusive: 70.8 µM [inhibitor, single point].
In the case of `COc1ccc(/C=C/C(=O)NC(=S)N2C[C@H]3C[C@H](C2)c2cccc(=O)n2C3)cc1`, the Potency is reported as inconclusive: 89.1 µM [inhibitor, single point].
In the case of `O=C1NC(=O)C2(Cc3ccccc3N3CCCC32)C(=O)N1Cc1ccccc1` (centres undefined), the Potency is reported as active: 35.5 µM.
With `Cc1cccc(Cn2cccc(C(=O)Nc3nc4ccccc4s3)c2=O)c1` the Potency was inconclusive: 12.6 µM [inhibitor, partial curve].
With `Nc1nonc1C(=O)N/N=C/c1ccc([N+](=O)[O-])o1` the Potency was active: 50.1 µM.
`COc1ccc(-n2c(O)c(/C=C/C=Nc3ccccc3)c(=O)[nH]c2=O)cc1` was tested, and the Potency was “inactive”.
With `CC(C)CCOP(=O)(c1ccc(N(C)C)cc1)C(O)c1ccc(Cl)cc1Cl` (centres undefined) the Potency was inconclusive: 39.8 µM [inhibitor, partial curve].
For `CC(=O)c1ccc2c(c1)C1C(Cl)C(Sc3ccccc3[N+](=O)[O-])CC1C(c1ccccc1)N2` (centres undefined), the Potency was active: 10 µM.
In the case of `Cc1c(O)ccc(C(=O)CN2CC(C)OC(C)C2)c1O` (centres undefined), the Potency is reported as inconclusive: 44.7 µM [inhibitor, partial curve, poor fit].
In the case of `COc1cccc(CN2C(=O)C3(SCC(=O)N3c3ccc(C)c(Cl)c3)c3ccccc32)c1` (centres undefined), the Potency is reported as inconclusive: 5.01 µM [inhibitor, full curve, poor fit].
`CC(C)CN1CCN(Cc2ccc(F)cc2Cl)CC1CCO` (centres undefined) was tested, and the Potency was inconclusive: 35.5 µM [inhibitor, partial curve, poor fit].
With `COC1CC(OC2CC[C@@]3(C=O)C4CC[C@]5(C)C(C6=CC(=O)OC6)CC[C@@]5(O)C4CC[C@]3(O)C2)OC(C)C1O` (some centres undefined) the activity, negative = inhibition was inconclusive: -61.4% [inhibitor] [at 2.33 µM].
For `COC(=O)C1=C(c2cccc(OCc3ccccc3)c2)C[C@@H]2CC[C@H]1N2C(=O)NCc1ccc(Br)cc1`, the activity, negative = inhibition was inactive: -5.98% [at 0.501 µM].
For `O=C1NC(=O)C(=Cc2ccc(N3CCOCC3)o2)C(=O)N1`, the Potency was inconclusive: 50.1 µM [inhibitor, partial curve].
`Cc1cccc(-n2c(CC3C(=O)Nc4ccc(C)cc43)nc3ccccc3c2=O)c1` (centres undefined) was tested, and the Potency was inconclusive: 15.8 µM [inhibitor, partial curve, poor fit].
With `O=C1NC(=O)N(C2CCCCC2)C(=O)C1C1c2ccccc2C(=O)N1Cc1ccccc1` (centres undefined) the Potency was active: 56.2 µM.
For `CCCCCCN1CCN(c2ccc(Cl)cc2)CC1`, the Potency was inconclusive: 39.8 µM [inhibitor, full curve].
